PubChem BioAssay AID588855 (National Center for Advancing Translational Sciences (NCATS), 2011)
About 5,000 (1.2%) of roughly 410,000 compounds were called active. Inconclusive results, whose numbers are uncertain, are shown with a selection of clear calls. The call rests on the fitted dose curve; in most records, active means well fitted inhibition curve with a large enough effect; inconclusive means small, poorly fitted or top-dose-only effect; inactive means no such curve, though single readings can be large or run the other way. Where the call is inconclusive, the potency comes from a doubtful curve fit.

Experiment: qHTS for Inhibitors of TGF-b; further: nearly all actives have a fitted effect of over 65% in size
Settings: HepG2 CAGA-GFP TGF-b/SMAD3 reporter, GFP fluorescence, 18 h, TGF-beta stimulated, 500 pg/mL final; series mostly up to 46.1 µM
Procedure, shortened: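 Inhibition was scored as loss of TGF-beta-induced (500 pg/mL final, 18 hours, 37 degrees C) GFP in HEPG2 cells carrying a CAGA-GFP reporter, in DMEM with 1% FBS. Well GFP was summed per cell; Activity was normalised to unstimulated and stimulated DMSO wells, then concentration-response fitting.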
Potency means the concentration at half of the fitted maximal effect; tags describe the fitted curve by direction and shape.

Question: With `C=CCn1c(-c2cc3c(s2)CCC(CC)C3)n[nH]c1=S` (stereo unspecified) as the molecule, how does the Potency read?
Answer: inconclusive: 17.8 µM [inhibitor, single point]

Question: With `O=C(CSc1cccc[n+]1[O-])Nc1ccccc1Oc1ccccc1` as the molecule, how does the Potency read?
Answer: inconclusive: 4.47 µM [inhibitor, full curve]

Question: For `Cc1ccc(-c2cc(=O)[nH]c3ccccc23)cc1`, which Potency is on record?
Answer: inconclusive: 35.5 µM [inhibitor, single point]

Question: With `COc1ccc(CNC(=O)c2cc(-c3cc(C)cc(C)c3O)n[nH]2)cc1` as the molecule, how does the Potency read?
Answer: inconclusive: 35.5 µM [inhibitor, single point]

Question: With `CCn1c(=N)n(CC(O)c2ccccc2)c2ccccc21` (stereo unspecified) as the molecule, how does the Potency read?
Answer: inactive

Question: Which Potency does the source give for `CCC(C)(C)c1ccc(OCC(=O)N(C)C)c(C(C)(C)CC)c1` here?
Answer: inconclusive: 35.5 µM [inhibitor, single point]

Question: For `CCn1c(/N=C/c2ccccc2NS(=O)(=O)c2ccc(C)cc2)nc2ccccc21`, which Potency is on record?
Answer: inconclusive: 20 µM [inhibitor, single point]

Question: With `Cc1nn(-c2ccccc2)c2c1C(c1cccs1)C(C#N)=C(N)O2` (stereo unspecified) as the molecule, how does the Potency read?
Answer: inconclusive: 0.631 µM [inhibitor, full curve]

Question: With `Cc1ccc2oc(-c3ccc(C)c(NC(=O)c4ccc(N5CCC(C)CC5)c([N+](=O)[O-])c4)c3)nc2c1` as the molecule, how does the Potency read?
Answer: inconclusive: 3.16 µM [inhibitor, partial curve, poor fit]

Question: For `CCc1nnc(NC(=O)c2cccc(S(=O)(=O)N3CC(c4ccccc4)CC3=O)c2)s1` (stereo unspecified), which Potency is on record?
Answer: inconclusive: 28.2 µM [inhibitor, partial curve, poor fit]

Question: For `CCCCCCCCC(=O)NC(NC(=S)N1CCOCC1)C(Cl)(Cl)Cl` (stereo unspecified), which Potency is on record?
Answer: inconclusive: 35.5 µM [inhibitor, single point]

Question: With `CC(C)[C@H](NC(=O)N1c2ccccc2NC(=O)[C@@H]1C(C)C)C(=O)N[C@H](Cc1ccccc1)C(=O)O` as the molecule, how does the Potency read?
Answer: inactive

Question: Which Potency does the source give for `CCOC(=O)CCCNS(=O)(=O)c1c(C)ccc2nsnc12` here?
Answer: inconclusive: 2.82 µM [inhibitor, single point]

Question: Which Potency does the source give for `Cc1cc(C)cc(Nc2ncnc3nc[nH]c23)c1` here?
Answer: inactive

Question: With `Cc1ccc(-c2n[nH]c3c2C(c2ccc(C(C)(C)C)cc2)NC3=O)cc1` (stereo unspecified) as the molecule, how does the Potency read?
Answer: inactive

Question: Which Potency does the source give for `Cc1cc(C)c(NC(=O)COC(=O)c2cccc3c2C(=O)c2ccccc2C3=O)c(C)c1` here?
Answer: inconclusive: 22.4 µM [inhibitor, single point]

Question: For `CNC(=O)c1ccc(NC(=O)c2ccccc2OCc2c(C)noc2C)cc1`, which Potency is on record?
Answer: inactive

Question: Which Potency does the source give for `COc1ccc(CNC(=O)C[C@H]2C[C@H](C(=O)N3CCCCC3)[C@@]3(CCc4ccccc4)c4[nH]c5cc(-c6ccco6)ccc5c4CCN3C2=O)cc1OC` here?
Answer: inconclusive: 15.8 µM [inhibitor, partial curve, poor fit]

Question: For `CCn1c(CC(=O)Nc2ccccc2F)nnc1SCC(=O)Nc1nncs1`, which Potency is on record?
Answer: inactive

Question: For `COCCNc1oc(/C=C/c2ccccc2OC)nc1S(=O)(=O)c1ccccc1`, which Potency is on record?
Answer: inconclusive: 5.01 µM [inhibitor, single point]

Question: With `CC(=O)Nc1ccc(Cl)cc1C(=O)c1ccc[nH]1` as the molecule, how does the Potency read?
Answer: inactive

Question: Which Potency does the source give for `Cc1ccc(-c2c3c(nc4sc(C(N)=O)c(N)c24)CCC3)cc1` here?
Answer: inconclusive: 14.1 µM [inhibitor, partial curve, poor fit]

Question: For `CCc1ccc(-c2cc3c(=O)n(CC(=O)N4CCCC4)nc(C)n3n2)cc1`, which Potency is on record?
Answer: inactive

Question: With `CC1C(=O)C(C)C(c2cccc(Br)c2)NC1c1cccc(Br)c1` (stereo unspecified) as the molecule, how does the Potency read?
Answer: inconclusive: 35.5 µM [inhibitor, single point]

Question: With `COc1cccc(CNC(=O)c2sc3nc(C)cc(C)c3c2-n2cccc2)c1OC` as the molecule, how does the Potency read?
Answer: inconclusive: 35.5 µM [inhibitor, single point]

Question: With `CCOC(=O)C1(N(CC)CC)Sc2cc(C)ccc2NC1=O` (stereo unspecified) as the molecule, how does the Potency read?
Answer: inconclusive: 22.4 µM [inhibitor, single point]

Question: Which Potency does the source give for `CCOC(=O)c1ccc(NC(=O)C2CCCN(c3ncnc4onc(-c5ccc(F)cc5)c34)C2)cc1` (stereo unspecified) here?
Answer: inconclusive: 35.5 µM [inhibitor, single point]

Question: For `COc1ccc(C(=O)CSc2ncn[nH]2)cc1OC`, which Potency is on record?
Answer: inconclusive: 35.5 µM [inhibitor, single point]

Question: Which Potency does the source give for `Cc1ccc(C(=O)c2coc3ccc(O)c(CN4CCN(C)CC4)c23)cc1` here?
Answer: inconclusive: 14.1 µM [inhibitor, single point]

Question: For `COc1ccc(C2/C=C\CN(C(=O)c3ccccc3)C(C)C(=O)N2Cc2ccc(F)cc2)cc1` (stereo unspecified), which Potency is on record?
Answer: inactive

Question: With `O=C(Nc1cccc(S(=O)(=O)N2CCCCC2)c1)c1ccccc1NS(=O)(=O)c1ccc(F)cc1` as the molecule, how does the Potency read?
Answer: inconclusive: 11.2 µM [inhibitor, partial curve, poor fit]

Question: For `O=C(NCCN1CCN(Cc2ccccc2)CC1)c1ccc(CS(=O)(=O)c2ccc(Br)cc2)o1`, which Potency is on record?
Answer: inactive

Question: With `Cc1ccc(OCC(=O)Nc2cccc(-c3nc4ccccc4s3)c2)cc1` as the molecule, how does the Potency read?
Answer: inconclusive: 35.5 µM [inhibitor, single point]

Question: Which Potency does the source give for `C[C@H](CO)N1C[C@H](C)[C@@H](CN(C)S(=O)(=O)c2ccc(F)cc2)Oc2ccc(NC(=O)C3CC3)cc2C1=O` here?
Answer: inconclusive: 5.62 µM [inhibitor, single point]

Question: Which Potency does the source give for `COc1ccc(-c2csc(NC(=O)c3cccc(N4C(=O)CCC4=O)c3)n2)cc1C` here?
Answer: inconclusive: 35.5 µM [inhibitor, single point]

Question: For `CCOC(=O)C1(C)/C(=N/Nc2cccc(Cl)c2)C(=O)C(=O)N1c1ccccc1` (stereo unspecified), which Potency is on record?
Answer: inconclusive: 3.55 µM [inhibitor, single point]

Question: With `CC(=O)Oc1ccc(N(C(C)=O)S(=O)(=O)c2ccc(Cl)cc2)c2ccccc12` as the molecule, how does the Potency read?
Answer: inactive

Question: Which Potency does the source give for `CCCCCCN1C[C@H](O)[C@@H](n2cc(COC(=O)c3ccccc3)nn2)C[C@@H]1c1ccc(C)cc1` here?
Answer: inconclusive: 22.4 µM [inhibitor, single point]

Question: With `O=C(COC(=O)/C=C/c1ccccc1Cl)NC(=O)NCc1ccccc1` as the molecule, how does the Potency read?
Answer: inconclusive: 35.5 µM [inhibitor, single point]

Question: Which Potency does the source give for `C=CCn1c(SCC(=O)c2[nH]c(C)c(C(=O)OCC)c2C)nc2scc(-c3ccc(OC)c(OC)c3)c2c1=O` here?
Answer: inconclusive: 3.16 µM [inhibitor, single point]

Question: With `COc1ccc(-c2ccc3c(c2)S(=O)(=O)c2cccc(C(=O)N4CCN(c5ccc(Cl)cn5)CC4)c2C3=O)cc1OC` as the molecule, how does the Potency read?
Answer: inactive

Question: For `Cc1cccc(C(C)C)c1NC(=O)COC(=O)Cc1ccsc1`, which Potency is on record?
Answer: inactive

Question: Which Potency does the source give for `Cc1ccc(C(=O)c2oc3ccccc3c2N)cc1` here?
Answer: inactive

Question: With `Cc1cc(NC(=O)CCC(=O)N(CCC(C)C)CC(=O)NCC2CCCO2)no1` (stereo unspecified) as the molecule, how does the Potency read?
Answer: inactive

Question: Which Potency does the source give for `CCNC(=S)Nc1cccc(S(=O)(=O)NC2=NCCC2)c1` here?
Answer: inactive

Question: Which Potency does the source give for `O=C(NCc1nc2ccccc2[nH]1)C1=C[C@H](c2ccccc2)C[C@H](OCc2ccc(CO)cc2)O1` here?
Answer: inactive

Question: For `Cc1ccc(S(=O)(=O)N2CCN(C(=O)CN3C(=O)NC(C)(c4ccc5ccccc5c4)C3=O)CC2)cc1` (stereo unspecified), which Potency is on record?
Answer: inconclusive: 11.2 µM [inhibitor, single point]

Question: For `O=C(COc1ccccc1F)Nc1ccc2oc(-c3cccc(Cl)c3)nc2c1`, which Potency is on record?
Answer: inactive

Question: With `COc1cc2c(c(OC)c1OC)-c1ccc(N(C)CC(OC)OC)c(=O)cc1[C@@H](NC(C)=O)CC2` as the molecule, how does the Potency read?
Answer: inconclusive: 1.78 µM [inhibitor, full curve]

Question: For `Cc1ccc(-c2ccc(=O)n(CC(=O)Nc3ccc(C)cc3Cl)n2)cc1`, which Potency is on record?
Answer: inactive

Question: With `CCCCN(CCCC)C(=O)C1CC=CCC1C(=O)O` (stereo unspecified) as the molecule, how does the Potency read?
Answer: inconclusive: 3.16 µM [inhibitor, single point]

Question: For `CC(C)(C)OC(=O)NCc1ccc(CNC(=O)c2nc[nH]c2C(=O)N2CCN(c3ccccc3)CC2)cc1`, which Potency is on record?
Answer: inconclusive: 35.5 µM [inhibitor, single point]

Question: For `CC(C)(C)Cc1c(C2CCCCC2)nc2ccc(Cl)cn12`, which Potency is on record?
Answer: inconclusive: 12.6 µM [inhibitor, single point]

Question: With `Cc1ccc(C(=O)OCC(=O)Nc2ccccc2C(F)(F)F)cc1S(=O)(=O)N1CCCCC1` as the molecule, how does the Potency read?
Answer: inactive

Question: With `CSc1ccc(-c2sc(Nc3cccc4ccccc34)n[n+]2-c2ccccc2)cc1` as the molecule, how does the Potency read?
Answer: inconclusive: 3.16 µM [inhibitor, single point]

Question: Which Potency does the source give for `CCOC(=O)Cc1csc(NC(=O)COc2ccc(N(C)S(=O)(=O)c3cccs3)cc2)n1` here?
Answer: inconclusive: 35.5 µM [inhibitor, single point]

Question: With `CC(=O)Nc1ccc(SC[C@H](C)CN2CC[C@H](C(C)(C)C)CCC2=O)cc1` as the molecule, how does the Potency read?
Answer: inconclusive: 3.55 µM [inhibitor, full curve, poor fit]

Question: With `COc1ccc(OC)c(-c2nnc3n2N=C(c2ccc(OC(F)F)c(OCC4CC4)c2)CS3)c1` as the molecule, how does the Potency read?
Answer: inconclusive: 22.4 µM [inhibitor, single point]

Question: For `COc1ccc(NS(=O)(=O)c2cccc(NC(=O)c3ccc(Cl)nc3)c2)cc1`, which Potency is on record?
Answer: inconclusive: 17.8 µM [inhibitor, single point]

Question: With `CCOC(=O)c1cnc(-n2cc(C)cn2)nc1NCc1ccc2c(c1)OCO2` as the molecule, how does the Potency read?
Answer: inactive

Question: With `COc1cc2ccccc2cc1C(=O)NC(=S)Nc1cccc(C(=O)O)c1C` as the molecule, how does the Potency read?
Answer: inactive

Question: With `COc1ccc(N=C2SC(C(=O)O)CC(=O)N2C)cc1` (stereo unspecified) as the molecule, how does the Potency read?
Answer: inconclusive: 3.16 µM [inhibitor, partial curve]

Question: For `C(=C1c2ccccc2Oc2ccccc21)c1ccccc1`, which Potency is on record?
Answer: inactive

Question: Which Potency does the source give for `CC1CC(C)C[N+](=C2C=C(N3CCCC3)CC(C)(C)C2)C1` (stereo unspecified) here?
Answer: inconclusive: 11.2 µM [inhibitor, partial curve, poor fit]

Question: Which Potency does the source give for `CC(C)c1ccccc1NC(=O)Nc1nnc([C@H]2C[C@H](O)[C@@H](CO)O2)s1` here?
Answer: inactive

Question: With `CCN(CC)S(=O)(=O)c1ccc(N2CCCC2)c(NC(=O)c2nn(C)c(=O)c3ccccc23)c1` as the molecule, how does the Potency read?
Answer: inconclusive: 35.5 µM [inhibitor, single point]
